Reference: ChEMBL document CHEMBL4888484, “Replenishing the malaria drug discovery pipeline: Screening and hit evaluation of the MMV Hit Generation Library 1 (HGL1) against asexual blood stage Plasmodium falciparum ,using a nano luciferase reporter read-out” (2022)
In all, about 150,000 compounds went through this assay and about 540 (0.36%) showed an effect of 50% or more. Some of the results follow.

test system: Plasmodium falciparum; assay: Primary screen in NF54 nanoGlo assay, in single point, at 2uM, 72h; a lower Z score goes with more inhibition; format: functional, Erythrocyte; conditions: timepoint 72 hour

| Compound | % Inhibition | Z score |
| --- | --- | --- |
| Cc1cc(C(=O)Nc2cc(-c3ccccc3Br)no2)on1 | -5% | 0.82 |
| COc1ccc(-n2nnc3c(=O)n(Cc4cccc5ccccc45)cnc32)cc1OC | -10% | 1.88 |
| O=C(c1cc(S(=O)(=O)N2CCCCC2)ccc1N1CCCC1)N1CCCc2ccccc21 | -10% | 1.69 |
| CCN(CC)S(=O)(=O)c1ccc(F)c(C(=O)OCCNC(C)=O)c1 | -10% | 0.84 |
| CCCN(C(=O)c1[nH]nc(CC)c1C)[C@H]1CCCC[C@@H]1O | -8% | 0.78 |
| C[C@H](Nc1ncc(F)c(-c2ccsc2)n1)C(=O)NCCF | -1% | 0.13 |
| COC[C@H]1CCCN1S(=O)(=O)N1CCC(c2cc[nH]n2)CC1 | -7% | 0.81 |
| Cc1c2c(=O)n(-c3nc4ccccc4s3)n(Cc3ccc(F)cc3)c2cc(=O)n1N1CCOCC1 | 30% | -3.45 |
| c1cnc2c(c1)CN(c1cc(C3CC3)nc(C3CC3)n1)CCO2 | 0% | -0.02 |
| COc1ccc(-c2cn3cc(C(=O)N4CCC[C@@H]4C)nc3c(=O)n2C)c(F)c1 | 17% | -3.3 |
| CCN(CC)C(=O)N1C[C@@H]2C[C@H](NS(=O)(=O)c3cccnc3)[C@H]1C2 | 34% | -3.89 |
| CC(C)(C)N1CC[C@H](NC(=O)NCCc2cnc3c(Cl)cnn3c2)C1 | -5% | 0.85 |
| Cc1ccc(C(=O)N2CC[C@H](c3nc(C)n[nH]3)[C@H](NC(=O)C3CCOCC3)C2)cc1 | -8% | 1.01 |
| N#Cc1cnc(NC(=O)c2ccco2)s1 | -6% | 0.63 |
| CC(=O)c1nc(NC(=O)C[C@@H](Cc2ccc(Cl)cc2)C(=O)Nc2nc(C(C)=O)c(C)s2)sc1C | -34% | 3.99 |
| CC(=O)Nc1cccnc1NC(=O)CC1=CCCCC1 | -9% | 1.64 |
| O=S(=O)(Cc1ccccc1Cl)N1CCCN2CCC[C@H]2C1 | -5% | 0.42 |
| COCCNC(=O)c1coc(CN(Cc2cccc(OC)c2)[C@@H](C)C(C)C)n1 | -17% | 2.36 |
| C=CCN(Cc1nccs1)[C@H]1CCS(=O)(=O)C1 | -8% | 1.27 |
| COc1ccccc1C(=O)N1CCc2cc(S(=O)(=O)N3CCCC3)ccc21 | -2% | 0.19 |
| CCCn1ncc(C(=O)N2CC(=O)N(CC(F)(F)F)C2)c1C1CC1 | 2% | -0.27 |
| CC(C)N(C(=O)c1ccnn1C(C)C)c1ccc(Br)cn1 | -1% | 0.16 |
| O=C1CCC2(CCN(S(=O)(=O)c3cccnc3)CC2)CN1Cc1cccnc1 | 4% | -0.66 |
| O[C@H](COCc1ccco1)CN1CCN(c2nccs2)CC1 | -5% | 0.89 |
| CC(C)[C@@H]1CN(Cc2cccc(C(=O)O)c2)CCCO1 | -4% | 0.76 |
| Cc1noc2ncc(NC(=O)CCC3CCC(C4OCCO4)O3)cc12 (stereo unspecified) | -2% | 0.22 |
| CCOc1ccnc(NCCc2nc(CC)no2)n1 | 11% | -1.49 |

| Compound | % Inhibition | Z score |
| --- | --- | --- |
| Oc1ccc(-c2nccn2-c2cccc3cnccc23)cc1Cl | -2% | 0.23 |
| O=C(c1ccc2ncsc2c1)N1C[C@@H]2CC[C@H]1CN(C1CCOCC1)C2 | -8% | 1.07 |
| Cc1ccc2c(c1)[C@@H](NS(=O)(=O)c1ccc(N)cc1)CO2 | -3% | 0.46 |
| Cc1ccccc1CC(=O)N[C@H]1CC(=O)N(CCN2CCOCC2)C1 | 1% | -0.08 |
| Cc1cc(CN(C)C(=O)c2cc(C)sc2C)no1 | -12% | 2.1 |
| CCn1ncc(NC(=O)c2cc(C)on2)c1C | 0% | 0.03 |
| Cc1nnc(-c2cc(S(=O)(=O)N3CCN(C(=O)c4ccco4)CC3)c[nH]2)o1 | -8% | 1.52 |
| C[C@@H](CC(=O)N(C)C)c1ccccc1F | -2% | 0.28 |
| CO[C@H]1C[C@H]2CC(NCc3ccc(C)nc3)C[C@H]2C1 (stereo partly specified) | -1% | 0.19 |
| O[C@H](COc1ccccc1-n1cccn1)CN1CCCC1 | 1% | -0.08 |
| Cc1nn(C)c2nc(NCCn3cc(Cl)cn3)sc12 | -6% | 1.07 |
| CN(C(=O)c1coc(CNC(=O)OC(C)(C)C)c1)c1ccccc1 | -16% | 2.18 |
| Cc1c(Cl)ccc2c1NC(=O)[C@]21[C@@H](C(=O)c2ccccc2)[C@]2(C(=O)Nc3ccccc32)[C@@H]2CCCN21 | 9% | -1.35 |
| C[C@@H](CC#N)N(C)C(=O)C(=O)Nc1nc(-c2ccccn2)cs1 | -15% | 2.42 |
| OCc1ccc(CN(CC2CCN(C3Cc4ccccc4C3)CC2)C[C@H]2CCCO2)o1 | -10% | 0.92 |
| COc1cccc(NC(=O)Cn2c(N3CCC(C)CC3)nc(C)cc2=O)c1 | -5% | 0.79 |
| O=C(c1cccc2[nH]c(C(F)F)nc12)N1CCO[C@]2(CCOC2)C1 | 1% | -0.17 |
| COc1cnc(NC(=O)N[C@H](c2ccncc2)C2CC2)s1 | -3% | 0.67 |
| Cc1ccccc1[C@H]1CCCN(C(=O)CCn2nnnc2CN2CCOCC2)C1 | -13% | 1.49 |
| COc1ccc(NC(=O)c2ccccc2Nc2nc(-c3ccccc3)c3cc(Br)ccc3n2)cc1 | -13% | 2.03 |
| O=C(Nc1ccc(-c2ccn[nH]2)cc1)N[C@H]1CC[C@H](O)CC1 | -10% | 1.59 |
| COCc1ccc(C(=O)N[C@@H](C)c2nc(C)no2)s1 | -5% | 1.12 |
| C[C@@H](Cc1ccco1)NS(=O)(=O)N(C)C | -4% | 0.52 |
| O=C(CN1CCC(F)(F)[C@@H](CO)C1)NCc1ccc(Cl)s1 | -6% | 0.75 |
| Cn1cc(S(=O)(=O)N(c2ccccc2)C2CCCC2)cn1 | 8% | -1.58 |
| CCN(CC)C(N)=NCc1cc(Cl)c2c(c1)OCCO2 | -10% | 1.01 |
